# Source: PubChem BioAssay AID686978 (National Center for Advancing Translational Sciences (NCATS), 2013)
# “And” between values parts separate entries of the source, which are not always exact repeats. Equal values may be shown once. Among all 420,000 compounds or so, about 64,000 (15%) were called active. The inconclusive results got no clear call from the source; some entries with a clear call stand among them for comparison. Calls come from the whole dose curve; as a rule, active = well fitted inhibition curve with a large enough effect; inconclusive = small, poorly fitted or top-dose-only effect; inactive = flat fitted curve, though single readings scatter. Potencies of inconclusive entries are left out as doubtful fits.
# Experiment: qHTS for Inhibitors of human tyrosyl-DNA phosphodiesterase 1 (TDP1): qHTS in cells in absence of CPT; note: nearly all actives have a fitted effect of over 55% in size
# Details: DT40 Tdp1-/- hTDP1 cells, no CPT, ATP luminescence, 48 h; activity change, negative = growth inhibition: at 46.2 µM (top of the series) unless noted
# Procedure, shortened: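 Readout: luminescence from CellTiter-Glo after 30 min in the dark at RT. Cells: DT40 Tdp1-/- with stable hTDP1, 400/well. Exposure: compounds alone, ≥48 hr, 37 °C.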
# % is set by controls: 0 for no effect and ±100 for the full control effect; potency is the fitted concentration of half-maximal effect; tags give direction and shape of the fitted curve.
SMILES,Potency,"activity change, negative = growth inhibition"
O=S(=O)(NC1CCCCC1Nc1ccccc1)c1ccccc1 (stereo not given),"inconclusive [inhibitor, single point]",–
Cc1cc2nc(C)n(CCCNC(=O)Nc3ccc(C#N)cc3)c2cc1C,"inconclusive [inhibitor, partial curve]",–
Cc1ccc2c(COC(=O)CNS(=O)(=O)c3ccccc3)cc(=O)oc2c1,inactive,–
Cc1ccc(-c2cc(-c3coc4ccccc4c3=O)c3c(n2)-c2ccccc2OC3)cc1,inactive,–
CN(CC(=O)Nc1ccccc1C(F)(F)F)C(=O)c1cc([N+](=O)[O-])ccc1N1CCOCC1,inactive,–
O=C(Cc1ccsc1)NNC(=O)c1ccccc1Cl,inactive,–
CN=c1scc(-c2ccccc2F)n1/N=C(\C)c1cccnc1,"inconclusive [inhibitor, partial curve, poor fit]",–
C[C@@H]1COC(=O)[C@@H](NC(=O)OCC2c3ccccc3-c3ccccc32)C/C=C\C[C@@H](CC(=O)N(CCO)Cc2ccccc2)C(=O)N1,active: 2.59 µM,–
COc1cccc(-c2cnc(C(O)c3ccc(Cl)cc3)[nH]2)c1 (stereo not given),"inconclusive [inhibitor, single point]",–
CCOC(=O)C1=C(COC(=O)c2ccc(Cl)nc2)NC(=O)NC1C (stereo not given),inactive,–
O=C(COc1ccc(Br)cc1Cl)NC1CCCCC1,"inconclusive [inhibitor, single point]",–
Nc1nonc1-n1nnc(C(=O)N/N=C/c2ccccc2)c1CN1CCc2ccccc21,–,inconclusive: -33.3% [inhibitor]
COc1ccc(/C=N/NC(=O)c2cc3cc(OC)c(OC)cc3[nH]2)cc1,inactive,–
COc1ccc(NC(=O)CN(c2ccccc2F)S(=O)(=O)c2ccc(C)cc2)cc1,"inconclusive [inhibitor, single point]",–
Oc1ccc(Cl)cc1CNCc1ccc(C(F)(F)F)cc1,"inconclusive [inhibitor, partial curve, poor fit]",–
O=C(CCCN1C(=O)/C(=C/c2ccco2)SC1=S)Nc1ccccc1,"inconclusive [inhibitor, single point]",–
CCOc1ccc(C(=O)Nc2ccc(NC(=O)c3ccco3)c(Cl)c2)cc1Cl,"inconclusive [inhibitor, partial curve]",–
COc1cc(/C=N/NC(=O)c2nnn(-c3nonc3N)c2C)ccc1OCc1ccc(Cl)cc1,"inconclusive [inhibitor, single point]",–
CC(OC(=O)c1ccccc1Br)C(=O)Nc1nc(-c2cccc([N+](=O)[O-])c2)cs1 (stereo not given),"inconclusive [inhibitor, single point]",–
CCCN(CC(=O)Nc1ccccc1OC)C(C)C(=O)NC(C)CCc1ccccc1 (stereo not given),"inconclusive [inhibitor, single point]",–
COc1ccc(C(=O)N(NC(=O)Oc2ccccc2)C(C)(C)C)cc1,inactive,–
Cc1cc(C)cc(OCC(=O)N/N=C/c2ccc([N+](=O)[O-])o2)c1,"inconclusive [inhibitor, full curve, poor fit]",–
O=C(CSc1nnnn1-c1ccc(F)cc1)NNC(=O)c1ccco1,inactive,–

SMILES,Potency,"activity change, negative = growth inhibition"
CN(CCO)C(=O)c1cn(C2CCCN(Cc3cc4ccccc4s3)C2)nn1 (stereo not given),inactive,–
COc1ccc(-c2cc(=O)c3c(OC)c(OC)c(OC)c(OC)c3o2)cc1OC,active: 23.1 µM and active: 20.6 µM,–
CC(=O)O[C@]1(C(C)=O)CC[C@H]2[C@@H]3CCC4=CC(=O)CC[C@]4(C)[C@@]3(F)[C@@H](O)C[C@@]21C,inactive,–
CCOC(=O)C1CCCN(S(=O)(=O)CCNC(=O)c2cccc(OC)c2)C1 (stereo not given),inactive,–
CCOc1ccc(-c2ncncc2-c2ccccc2OC)c(O)c1,active: 23.1 µM,–
COc1cc2c(C(=O)N3CCOCC3)c(CSc3ccccc3)n(C)c2cc1Br,"inconclusive [inhibitor, single point]",–
Cc1ccccc1-n1cc(CNC(=O)CCc2nnc(CCc3ccccc3)o2)cn1,inactive,–
FC(F)(F)c1cc(C(F)(F)F)c2ccc(N3CCN(c4ccccc4)CC3)nc2n1,inactive,–
O=C(NC12CC3CC(CC(C3)C1)C2)c1ccc(COc2ccc(Cl)cc2[N+](=O)[O-])o1,"inconclusive [inhibitor, single point]",–
Cn1ncc([N+](=O)[O-])c1C(=O)Nc1ccc(-c2nc3ccccc3o2)cc1,"inconclusive [inhibitor, partial curve, poor fit]",–
O=C(C[n+]1ccncc1)c1ccc2ccccc2c1,"inconclusive [inhibitor, single point]",–
CC(=O)N1c2ccc(S(=O)(=O)NCC3CCC(C(=O)N(C)Cc4ccccc4)CC3)cc2CC1C (stereo not given),"inconclusive [inhibitor, partial curve]",–
COc1ccccc1CCC(=O)N1CCN(S(=O)(=O)c2cccc(F)c2)CC1,inactive,–
COc1ccnc(CN(C)C(=O)C2CCC(=O)N(Cc3cccc(C(F)(F)F)c3)C2)c1 (stereo not given),inactive,–
CN(C)c1nc(N)ncc1-c1ccc(Oc2ccccc2)cc1,inactive,–
O=C(Nc1ccccc1)c1cc(C2COCCN2C(=O)c2ccccn2)on1 (stereo not given),"inconclusive [inhibitor, single point]",–
CSc1nc(N(C)C)nc(N(C#N)CCOC(C)=O)n1,"inconclusive [inhibitor, partial curve]",–
O=C(NC1CCCc2ccccc21)C1CCN(S(=O)(=O)N2CCCCCC2)CC1 (stereo not given),active: 18.4 µM,–
O=C(OCc1ccccc1)N1CCC2CC1c1ccc(-c3cccc(F)c3)cc12 (stereo not given),"inconclusive [inhibitor, single point]",–
Cc1ccc([C@H]2C(C(=O)O)=CC[C@@H](c3ccc(C)cc3)N2S(=O)(=O)c2ccccc2C)cc1,"inconclusive [inhibitor, single point]",–
N#Cc1ccc(COC(=O)c2ccc3c(c2)OCO3)cc1,inactive,–
Cc1ccc2[nH]c3c(NCCCN4CCCC4=O)ncnc3c2c1,"inconclusive [inhibitor, single point]",–
